In article PMC3124085 (Structure (London, England : 1993), 2010):

Legend:
[1] = target: T1, human TSG101 UEV domain (UEV-WT) (Homo sapiens, UniProt Q99816); assay: biochemical
[2] = target: T1, human TSG101 UEV domain (UEV-WT); conditions: ITC200, 28°C, 20mM sodium phosphate pH 7.20, 150mM NaCl, 5% glycerol, cell 300-600 μM UEV, peptide 4 mM or 6.5 mM, 18 injections of 2.1 μl, one-site model, SD of three measurements, N.B. = no binding

T1 sequence (Q99816 2-145): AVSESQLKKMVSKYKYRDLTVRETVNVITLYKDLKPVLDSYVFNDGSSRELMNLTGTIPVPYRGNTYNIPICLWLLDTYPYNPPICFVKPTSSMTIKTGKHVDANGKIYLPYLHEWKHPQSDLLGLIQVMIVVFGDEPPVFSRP

Substance | Kd [1] [µM] | Kd (equilibrium dissociation constant, ITC) [2]
Ac-PEPTAPAEE-NH2 [P11A] | 170 ± 15 | –
Ac-PESTAPPEE-NH2 [P7S] | 1600 ± 14 | measurable binding
